Experimental data from paper PMC7819943, “Rice protein-binding microarrays: a tool to detect cis-acting elements near promoter regions in rice”.
The list shows a part of the results.

What follows are sequences tested against T1, OsWOX13 (Oryza sativa, UniProt Q5QMM3 1-267) (assay: protein-binding microarray (RPBM); PBS, 2% BSA, 51.3 ng/ul salmon testes DNA, 50 uM zinc acetate, 200 nM TF, 25 C, 1 h; high values mean tight binding). Conditions: protein: recombinant; tags: N-terminal polyhistidine and DsRed monomer fusion (pET32a); label: CyDye5-dUTP incorporated in the synthesized complementary strand; 3' TTTTT single-stranded linker to array surface; dsDNA, one strand shown.
T1 sequence: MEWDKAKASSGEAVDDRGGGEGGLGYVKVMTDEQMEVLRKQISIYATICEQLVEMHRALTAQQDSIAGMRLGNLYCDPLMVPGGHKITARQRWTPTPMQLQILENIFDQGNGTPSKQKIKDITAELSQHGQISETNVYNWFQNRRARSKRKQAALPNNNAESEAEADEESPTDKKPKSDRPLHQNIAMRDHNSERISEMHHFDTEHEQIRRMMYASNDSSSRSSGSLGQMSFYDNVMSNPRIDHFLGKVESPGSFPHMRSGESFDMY
Outline: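 Per-feature fluorescence intensity (arbitrary units), read on an Axon 4000B scanner, is the binding signal. Transcription factors carrying an N-terminal polyhistidine tag and DsRed fusion were expressed in E. coli BL21-CodonPlus and purified on Ni–NTA. A custom Agilent array, made double-stranded by primer extension with Cy5-dUTP and blocked with 2% BSA, was incubated with 200 nM protein in PBS, 2% BSA, salmon testes DNA and 50 µM zinc acetate at 25 °C for 1 h and then washed.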

First: GTTACAAGTTAAAATTTTAATTTTAAAGCTGATTTTATCCCGGAGTCACCTAGTGCAG
Second: GTGTAATAAATTGACAAGATAGATTGATGCCCAGTTTTCACGGAGTCACCTAGTGCAG
The binding signal of the first is lower: 4000 fluorescence intensity (a.u.) for the first, 37600 fluorescence intensity (a.u.) for the second.

Compared with “AGCTAATTAACTGAAGCCAGGTGTGAAGTTGAGTTACAGCCGGAGTCACCTAGTGCAG”, “GGACTGCCAGCCACCCATCAATCAATTGCTGAAAAGGTCTCGGAGTCACCTAGTGCAG” is lower in binding signal: 45100 fluorescence intensity (a.u.) for the first, 5780 fluorescence intensity (a.u.) for the second.

First: AACAAAATCACGCTCTGATTATTTTATCGTCTAGAATTAACGGAGTCACCTAGTGCAG
Second: AAGAAATTAAATATTATTACTTGTTTGATCTTTTCCTTTTCGGAGTCACCTAGTGCAG
The binding signal of the first is higher: 9000 fluorescence intensity (a.u.) for the first, 3900 fluorescence intensity (a.u.) for the second.

Going from “CACTGACATAATTACCCTTGGAAGTTATTATCAACGGAAGCGGAGTCACCTAGTGCAG” to “AAGCACAATTAATCTGAATAATTGAAGTTCAGAGCAGCAGCGGAGTCACCTAGTGCAG”, the binding signal rises from 35600 fluorescence intensity (a.u.) to 39400 fluorescence intensity (a.u.).

Compared with “TTGGAATTATTGGATAAACTCGGCTCCAGATTGTTAGGTACGGAGTCACCTAGTGCAG”, “AGCTTTTATTTAATTAATTATATACTAATTCCCCATTCTTCGGAGTCACCTAGTGCAG” is higher in binding signal: 6970 fluorescence intensity (a.u.) for the first, 24100 fluorescence intensity (a.u.) for the second.

Going from “TGTTTAGATTTGTTTCATTTTCTTCATACTTTGATGTCAACGGAGTCACCTAGTGCAG” to “ATTGTCAAATCATAGCGTAATTAGGTTTAACAGATCCATCCGGAGTCACCTAGTGCAG”, the binding signal rises from 5340 fluorescence intensity (a.u.) to 26900 fluorescence intensity (a.u.).

Going from “CTAGGGTTCTTGATCAGTGATTGTGTGACAGTGTGAGAGGCGGAGTCACCTAGTGCAG” to “CCTAGTTTATTGTGTACTAATTTGTTGATGAATGGCATGTCGGAGTCACCTAGTGCAG”, the binding signal rises from 3410 fluorescence intensity (a.u.) to 14900 fluorescence intensity (a.u.).

First: TACTGGGTGATTGCTTTCTACCCCGCAATAAGAGATGAGTCGGAGTCACCTAGTGCAG
Second: ACATTGATTTGCAGAAGGACTATTTTGTAATAGTAAAGTACGGAGTCACCTAGTGCAG
The binding signal of the first is lower: 16000 fluorescence intensity (a.u.) for the first, 22200 fluorescence intensity (a.u.) for the second.

First: TCACATTCTTGCATGATTGAACACTCCCTTTCATCCCTCACGGAGTCACCTAGTGCAG
Second: ACCCTGTTTCGCTCCTAATTAAGATAGGAATTGTTACGATCGGAGTCACCTAGTGCAG
The binding signal of the first is higher: 18900 fluorescence intensity (a.u.) for the first, 4870 fluorescence intensity (a.u.) for the second.

First: TCTAATAACCCCTTAATTAGCATCAAAATCATGAGTTTAACGGAGTCACCTAGTGCAG
Second: CCATTAATTTTCCATTGTTAGAATGTGAATTTCAATACATCGGAGTCACCTAGTGCAG
The binding signal of the first is lower: 6570 fluorescence intensity (a.u.) for the first, 12300 fluorescence intensity (a.u.) for the second.

“CACATGTGATTGGGCCTCGAGCCTCAGCGTGCGTGCGCCCCGGAGTCACCTAGTGCAG” and “CCTGAATTTTGCTGCTGATTAGAATGTTATAAACATAACTCGGAGTCACCTAGTGCAG” are the same in binding signal: 20400 fluorescence intensity (a.u.) for the first, 20400 fluorescence intensity (a.u.) for the second.

Going from “GGCCCCTTGATAGGTAATAGCCCTAATCCAGTTGATATGGCGGAGTCACCTAGTGCAG” to “TCATTGATTAAGAAGAATAGTTAATTCTTGGGCAACTGCGCGGAGTCACCTAGTGCAG”, the binding signal rises from 8820 fluorescence intensity (a.u.) to 25800 fluorescence intensity (a.u.).

First: TTTAATTTCACCAGATAAGATATACACAAACCCTGGTGATCGGAGTCACCTAGTGCAG
Second: TAGCAATTGCTAATCACATTTATGGGTATGGCTTCCCTTACGGAGTCACCTAGTGCAG
The binding signal of the first is lower: 4560 fluorescence intensity (a.u.) for the first, 13000 fluorescence intensity (a.u.) for the second.

First: GGCAAATTAGTGCAAGATTTGCAGATCCAAGAATGTACAGCGGAGTCACCTAGTGCAG
Second: GGGAGATTGGAAGATCTATAATCTTAAGTGTGCGATCATTCGGAGTCACCTAGTGCAG
The binding signal of the first is higher: 26500 fluorescence intensity (a.u.) for the first, 22300 fluorescence intensity (a.u.) for the second.

Going from “TTCTTTAACAGGCCTAATTAGCAAGAGGCCCAGATAATAGCGGAGTCACCTAGTGCAG” to “AATCCAATCTAAATGGGTAGGATAATAACACCATCGTTTGCGGAGTCACCTAGTGCAG”, the binding signal falls from 18400 fluorescence intensity (a.u.) to 5190 fluorescence intensity (a.u.).

Going from “CTGTTTAATTTTGCTATTAAAATTTGAATTGCATTTGTTCCGGAGTCACCTAGTGCAG” to “CCCAAATCTGGCAATTACAACTTCGGATAGAACAATCCAACGGAGTCACCTAGTGCAG”, the binding signal falls from 24600 fluorescence intensity (a.u.) to 4570 fluorescence intensity (a.u.).

Going from “GTATTGTGATTTGTGAATCAGTGAATATGTGAATGTGATTCGGAGTCACCTAGTGCAG” to “CGAATTACCCTTAAATATAAATTTATTGTAGTCTAATCATCGGAGTCACCTAGTGCAG”, the binding signal falls from 13200 fluorescence intensity (a.u.) to 5140 fluorescence intensity (a.u.).

Going from “ATTGATTTATAAAATTAGTATCATCAAAGGCGTAAAACGTCGGAGTCACCTAGTGCAG” to “CATGACAGAGTGATCAAACACCAACCAATTAAACCGACCTCGGAGTCACCTAGTGCAG”, the binding signal falls from 34400 fluorescence intensity (a.u.) to 15300 fluorescence intensity (a.u.).

Compared with “TCCTAGATTAATTAACCAAGATCCCGGCCTGAATTGAAGTCGGAGTCACCTAGTGCAG”, “TGTTAAATTATCATCCAACATAATTCACATAATGTTTCAACGGAGTCACCTAGTGCAG” is lower in binding signal: 36500 fluorescence intensity (a.u.) for the first, 12800 fluorescence intensity (a.u.) for the second.

Going from “ATAACTGGAATTTATGTCACAAACTAGATGATTCCATCTGCGGAGTCACCTAGTGCAG” to “GATTAATTTGCCATTGGATCCAAGCACACTCCTAGGTAAGCGGAGTCACCTAGTGCAG”, the binding signal rises from 10700 fluorescence intensity (a.u.) to 17400 fluorescence intensity (a.u.).

Compared with “CAGATTGGATTCTATTCTAAACCCCAGCTAATACGCCACGCGGAGTCACCTAGTGCAG”, “TAGATATAATTACCTTTTCAGGACTCTATCCACGTGCGGCCGGAGTCACCTAGTGCAG” is lower in binding signal: 13300 fluorescence intensity (a.u.) for the first, 6740 fluorescence intensity (a.u.) for the second.

First: AAGGACTGACACGAAACAGACGGACACATGCACCTCACCCCGGAGTCACCTAGTGCAG
Second: CATCCATCCAACTTAATTTGACAGCAACTCACTGCAGCTTCGGAGTCACCTAGTGCAG
The binding signal of the first is lower: 5180 fluorescence intensity (a.u.) for the first, 12000 fluorescence intensity (a.u.) for the second.

First: ATAATTTATTCCCACTTGACAAGGCCGGCATCGCTTGGTTCGGAGTCACCTAGTGCAG
Second: GATGGCCATAATTATGGATAGATTTCACTTTGGAATGAATCGGAGTCACCTAGTGCAG
The binding signal of the first is lower: 7030 fluorescence intensity (a.u.) for the first, 16800 fluorescence intensity (a.u.) for the second.

Going from “AGTCCCATCTAAACAGGGCCTAATTGTTCTAGGACATGGGCGGAGTCACCTAGTGCAG” to “TTTGGGTGTTAGTGTCTTAATTAGTGTGTGAGCCCCATCCCGGAGTCACCTAGTGCAG”, the binding signal rises from 3510 fluorescence intensity (a.u.) to 3790 fluorescence intensity (a.u.).

Compared with “CAATGAATAATTGAACAGGATTTGAGAAGTGATCAAGCTCCGGAGTCACCTAGTGCAG”, “TTGTGAATGATTTGGGATGAACTATGTTGTTGTGAATGATCGGAGTCACCTAGTGCAG” is lower in binding signal: 16700 fluorescence intensity (a.u.) for the first, 12000 fluorescence intensity (a.u.) for the second.

Compared with “CTCAATTAATTTCGTCCTAAGTGAACCTGTCATCTGTAGCCGGAGTCACCTAGTGCAG”, “AATCATGGCGTAATTAGGCTTAAAAGATTCGTCTCGCAATCGGAGTCACCTAGTGCAG” is lower in binding signal: 26100 fluorescence intensity (a.u.) for the first, 3620 fluorescence intensity (a.u.) for the second.

Going from “ATGCATTCAACTAATCAATATTATTTTCTATTGGTTTAACCGGAGTCACCTAGTGCAG” to “TATAATTATTTTGAGTCACTACTAACCTCCTTGCCCGTTACGGAGTCACCTAGTGCAG”, the binding signal rises from 3560 fluorescence intensity (a.u.) to 22800 fluorescence intensity (a.u.).
